# Source: article PMC4336329 (PLoS ONE, 2015)
# The campaign covered roughly 310,000 compounds. About 14,000 (4.5%) showed an effect of 50% or more. The effect is printed as a negative number. This is one part of the list.
# Target: human ether-à-go-go-related gene (hERG) potassium channel (human, UniProt Q12809)
# Experiment: primary screen, population patch clamp on CHO cells stably expressing hERG
# 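Note: peak tail current of the secondary pulse compared with the same well before compound.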
# human ether-à-go-go-related gene (hERG) potassium channel, sequence (Q12809 whole entry, looked up): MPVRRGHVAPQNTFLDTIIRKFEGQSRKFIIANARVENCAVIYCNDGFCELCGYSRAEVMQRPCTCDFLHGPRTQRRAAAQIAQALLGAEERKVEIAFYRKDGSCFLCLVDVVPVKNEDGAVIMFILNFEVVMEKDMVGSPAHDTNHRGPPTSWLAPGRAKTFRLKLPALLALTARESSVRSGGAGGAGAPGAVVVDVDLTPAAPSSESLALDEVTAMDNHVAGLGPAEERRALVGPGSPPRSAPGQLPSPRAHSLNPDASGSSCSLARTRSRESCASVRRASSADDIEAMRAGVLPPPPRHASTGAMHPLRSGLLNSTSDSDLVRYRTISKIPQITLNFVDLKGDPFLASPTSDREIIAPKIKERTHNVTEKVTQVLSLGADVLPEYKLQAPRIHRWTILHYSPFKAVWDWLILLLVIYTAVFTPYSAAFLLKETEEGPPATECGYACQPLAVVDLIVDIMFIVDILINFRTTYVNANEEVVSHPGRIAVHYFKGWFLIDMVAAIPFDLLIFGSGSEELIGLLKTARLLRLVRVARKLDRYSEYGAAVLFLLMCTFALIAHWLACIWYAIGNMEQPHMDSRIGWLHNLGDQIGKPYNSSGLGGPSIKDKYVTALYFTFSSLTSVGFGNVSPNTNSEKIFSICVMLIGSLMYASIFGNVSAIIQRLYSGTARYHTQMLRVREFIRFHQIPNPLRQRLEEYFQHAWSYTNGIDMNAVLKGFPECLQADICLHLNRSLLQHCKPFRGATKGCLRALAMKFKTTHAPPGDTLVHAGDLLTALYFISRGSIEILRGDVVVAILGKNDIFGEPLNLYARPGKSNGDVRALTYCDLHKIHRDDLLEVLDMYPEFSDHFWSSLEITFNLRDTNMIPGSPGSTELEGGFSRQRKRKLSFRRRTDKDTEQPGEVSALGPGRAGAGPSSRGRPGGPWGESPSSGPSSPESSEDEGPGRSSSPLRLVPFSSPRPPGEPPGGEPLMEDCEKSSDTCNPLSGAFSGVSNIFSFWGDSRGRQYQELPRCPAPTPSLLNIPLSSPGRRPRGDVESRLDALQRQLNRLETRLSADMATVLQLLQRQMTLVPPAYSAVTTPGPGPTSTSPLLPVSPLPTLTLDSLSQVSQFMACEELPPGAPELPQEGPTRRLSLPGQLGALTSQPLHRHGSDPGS
row,Structure (SMILES),"hERG current change (%, negative = inhibition) at 10uM [%]"
1,O=C(c1ccc2c(c1)OCCCO2)c1cccs1,-2.99
2,COc1ccc(Br)cc1S(=O)(=O)Nc1ncccc1C,26.2
3,Cc1ccc(C(=O)N/C(=C\c2cn(S(=O)(=O)N(C)C)c3ccccc23)C(=O)NCCCn2ccnc2)cc1,-28.6
4,CCOC(=O)/C(C#N)=C/Nc1cc(F)ccc1C,20.9
5,N#Cc1nc(-c2ccc(OCc3ccccc3Cl)cc2)oc1NCCCn1ccnc1,-13
6,COc1ccc(OC)c(NC(=S)NCCCN2CCOCC2)c1,-3.09
7,O=C(CSc1ncn(-c2ccccc2)n1)Nc1ccc2c(c1)OCO2,-32.5
8,COC(=O)C1=C(C)N(C)C(=O)NC1c1ccc([N+](=O)[O-])o1 (stereo not shown),-5.76
9,O=C(Nc1ccc(N2CCOCC2)c(Cl)c1)c1cccnc1Cl,-1.86
10,Cc1ccn2c(c1)nc(=S)n2C(=O)c1ccccc1,-13.1
11,Nc1nc(SCC(=O)N2CCCC2)[nH]c(=O)c1NC(=O)c1cccs1,20.2
12,COc1ccccc1CCc1nnc(CCC(=O)NCC2CCCO2)o1 (stereo not shown),11.1
13,COc1ccc(C)cc1S(=O)(=O)N1CCC2(CC1)OCCN2S(=O)(=O)c1cccs1,-16.5
14,COc1ccc(N2CCN(C(=O)Nc3ccc(S(=O)(=O)N(C)C)cc3)CC2)cc1,6.8
15,c1ccc(CCn2nnnc2CN2CCC(n3nnc4ccccc43)CC2)cc1,-36.4
16,O=C(CCC(=O)N1CCOc2ccccc21)NCCN1CCOCC1,-0.391
17,CC(C)Cc1nc2sc3c(c2c(=O)n1N)CC(C)(C)OC3,8.18
18,CCn1c(CSc2nc3ccccc3s2)nnc1SCC(=O)OC(C)(C)C,-31.9
19,O=C(NC1CCCCCC1)C1CCN(S(=O)(=O)c2ccc(F)cc2)CC1,0.579
20,NC(=O)c1ccsc1NC(=O)COC(=O)c1ccc(Cl)c(N)c1,-3.1
21,Cc1nc2nc(-c3ccc(Cl)cc3)[nH]n2c(=O)c1Cc1ccccc1,6.69
22,CCCCNC(=O)CCNS(=O)(=O)c1ccc(Br)cc1,-14.7

row,Structure (SMILES),"hERG current change (%, negative = inhibition) at 10uM [%]"
1,O=[N+]([O-])c1ccc(C[n+]2cc(-c3ccc(Cl)c(Cl)c3)n3c2CCCCC3)cc1.[Br-],-15.7
2,CC(C)Sc1nc2sccc2c(=O)n1-c1ccccc1,9.33
3,CC(C)(/C=N/O)/[N+]([O-])=C/C=[N+](\[O-])C(C)(C)/C=N/O,7.54
4,COC1CCCN(Cc2nc(Cc3ccccc3F)no2)C1 (stereo not shown),21.4
5,CCN(C(=O)COc1ncnc2scc(-c3ccc(F)cc3)c12)C1CCS(=O)(=O)C1 (stereo not shown),-14
6,O=C(O)c1ccccc1NC(=S)NC(=O)c1sc2ccccc2c1Cl,22.6
7,C/C(CC(=O)Nc1ccc2c(c1)OCO2)=N\NC(=O)C(c1ccccc1)c1ccccc1,-7.89
8,O=C(NC(=S)NCc1ccc(F)cc1)c1ccccc1,-48.2
9,O=C(CN1CCN(c2ccc(F)cc2)CC1)Nc1ccccc1Br,12.5
10,Cc1ccc(S(=O)(=O)Nn2c(C)ccc2C)cc1,15.3
11,CCOC(=O)c1cc(CC)sc1NC(=O)Cc1ccccc1,25.9
12,CCOC(=O)C1CCN(C(=O)c2cc(C(C)(C)C)nn2Cc2ccccc2)CC1,-20
13,CN1CCN(C(=S)NC(=O)c2ccc(S(=O)(=O)N3CCOCC3)cc2)CC1,28.9
14,Cc1c(N/C(=N/S(=O)(=O)c2ccccc2)c2ccc(Cl)cc2)c(=O)n(-c2ccccc2)n1C,-30.7
15,Cc1nn(Cc2ccccc2)c(C)c1C(=O)NCc1ccccc1,6.55
16,CCN1CCN(C(=O)c2cn(CC)c3ccc(S(=O)(=O)N(C)C)cc3c2=O)CC1,16
17,CCN(CC(=O)NCc1ccc(Cl)cc1)C(=O)CSCC(=O)Nc1ccc(OC)cc1,-66.7
18,Cc1onc(-c2ccccc2Cl)c1C(=O)N[C@@H]1C(=O)N2[C@@H]1SC(C)(C)[C@@H]2C(=O)[O-].[Na+],9.2
19,CC(Cc1ccccc1)NC(=O)c1ccc([N+](=O)[O-])cc1 (stereo not shown),-20.9
20,C=CCN=C(NC#N)SCc1ccccc1Cl,0.978
21,CCCCc1nc2ccccc2c(N)c1CCC.O=C(O)c1cc([N+](=O)[O-])ccc1Cl,-66.4
